Lines with a small IC50 respond at low doses; where the fit passes the top or lowest dose, that dose stands as a limit. AUC sums up the same curve from the lowest dose to the 256-fold higher top dose; the more sensitive the line, the further below 1. Any top dose called inferred was derived from the fitted curves, not read from the paper. For some assays here: Where an entry number is given, a second screen of the drug exists; the two often differ.
Legend:
Assay in all cases: Viability of human cancer cell lines after 72 h of drug (GDSC screen)
BMN-673 = compound: Cn1ncnc1[C@H]1c2n[nH]c(=O)c3cc(F)cc(c23)N[C@@H]1c1ccc(F)cc1 [BMN-673]; conditions: top dose 10 µM; top dose inferred
Protocol: (§1)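 Human cancer cell lines in 384-well plates, medium with 10% serum, drug for 72 h over a 256-fold dose range (nine 2-fold or five 4-fold steps up to the top dose). Adherent lines were fixed and stained with the nucleic acid dye Syto60, suspension lines read with resazurin; signal relative to control wells, capped at 0 and 100%. One two-parameter sigmoid per drug and line, fitted in a mixed model over all curves with the slope shared within a line.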

MLN4924 = compound: NS(=O)(=O)OC[C@@H]1C[C@@H](n2ccc3c(N[C@H]4CCc5ccccc54)ncnc32)C[C@@H]1O [MLN4924]; conditions: top dose 1 µM; top dose inferred
Protocol: as §1

AZD6482 = compound: Cc1cc([C@@H](C)Nc2ccccc2C(=O)O)c2nc(N3CCOCC3)cc(=O)n2c1 [AZD6482]
Protocol: as §1

[1] = top dose 5 µM, screen: GDSC drug entry 1066, top dose inferred
[2] = top dose 5.12 µM, screen: GDSC drug entry 156

Row | Cell Line | AUC (BMN-673) | IC50 (BMN-673) [µM] | AUC (MLN4924) | IC50 (MLN4924) [µM] | AUC (AZD6482; [1]) | IC50 (AZD6482; [1]) [µM] | AUC (AZD6482; [2]) | IC50 (AZD6482; [2]) [µM]
1 | COR-L105 (lung adenocarcinoma, adherent) | 0.947 | > 10 | 0.902 | > 1 | 0.83 | 4.16 | 0.869 | > 5.12
2 | COR-L321 (lung, suspension) | 0.979 | > 10 | 0.916 | > 1 | 0.982 | > 5 |  | 
3 | CP66-MEL (melanoma, adherent) | 0.963 | > 10 | 0.923 | > 1 | 0.973 | > 5 | 0.961 | > 5.12
4 | CPC-N (small cell lung carcinoma, suspension) | 0.914 | > 10 | 0.884 | > 1 | 0.974 | > 5 | 0.985 | > 5.12
5 | CRO-AP2 (B-cell lymphoma, suspension) | 0.751 | 2.92 | 0.599 | 0.112 | 0.935 | > 5 |  | 
6 | CTB-1 (B-cell lymphoma, suspension) | 0.917 | > 10 | 0.962 | > 1 | 0.914 | > 5 | 0.842 | > 5.12
7 | CTV-1 (acute myeloid leukaemia, suspension) | 0.724 | 2.32 | 0.946 | > 1 | 0.946 | > 5 | 0.97 | > 5.12
8 | Ca9-22 (head and neck, adherent) | 0.881 | 9.17 | 0.799 | 0.438 | 0.892 | > 5 | 0.983 | > 5.12
9 | Ca-Ski (cervix, adherent) | 0.798 | 5.45 | 0.761 | 0.396 | 0.97 | > 5 | 0.742 | 1.74
10 | Calu-6 (lung adenocarcinoma, adherent) | 0.897 | > 10 | 0.843 | 0.866 |  |  | 0.979 | > 5.12
11 | Caov-4 (ovary, adherent) | 0.677 | 2.47 | 0.733 | 0.401 | 0.977 | > 5 | 0.978 | > 5.12
12 | ChaGo-K-1 (non-small cell lung carcinoma, adherent) | 0.939 | > 10 | 0.9 | > 1 |  |  | 0.968 | > 5.12
13 | D-283MED (medulloblastoma, adherent) | 0.908 | > 10 | 0.912 | > 1 | 0.909 | > 5 | 0.991 | > 5.12
14 | D-502MG (glioma, adherent) | 0.707 | 3.35 | 0.735 | 0.433 | 0.868 | > 5 | 0.943 | > 5.12
15 | DB (B-cell lymphoma, suspension) | 0.896 | > 10 | 0.981 | > 1 |  |  | 0.978 | > 5.12
16 | DEL (lymphoid neoplasm, suspension) | 0.496 | 0.613 | 0.674 | 0.17 | 0.994 | > 5 | 0.972 | > 5.12

Row | Cell Line | AUC (BMN-673) | IC50 (BMN-673) [µM] | AUC (MLN4924) | IC50 (MLN4924) [µM] | AUC (AZD6482; [1]) | IC50 (AZD6482; [1]) [µM] | AUC (AZD6482; [2]) | IC50 (AZD6482; [2]) [µM]
17 | DJM-1 (skin, adherent) | 0.807 | 5.08 | 0.743 | 0.308 | 0.983 | > 5 | 0.977 | > 5.12
18 | DK-MG (glioma, adherent) | 0.911 | > 10 | 0.939 | > 1 | 0.731 | 2.01 | 0.932 | > 5.12
19 | DMS-79 (small cell lung carcinoma, suspension) | 0.937 | > 10 | 0.973 | > 1 | 0.977 | > 5 | 0.963 | > 5.12
20 | DSH1 (bladder, adherent) | 0.988 | > 10 | 0.824 | 0.562 | 0.917 | > 5 | 0.939 | > 5.12
21 | DU-145 (prostate, adherent) | 0.777 | 4.51 | 0.81 | 0.604 | 0.652 | 0.867 | 0.944 | > 5.12
22 | DU-4475 (breast, suspension) | 0.98 | > 10 | 0.528 | 0.0733 | 0.97 | > 5 | 0.973 | > 5.12
23 | Daoy (medulloblastoma, adherent) | 0.259 | 0.138 | 0.614 | 0.124 | 0.902 | > 5 | 0.9 | > 5.12
24 | Detroit562 (head and neck, adherent) | 0.893 | > 10 | 0.778 | 0.389 | 0.79 |  | 0.693 | 1.09
25 | EB2 (Burkitt lymphoma, suspension) | 0.854 | 6.74 | 0.848 | 0.638 | 0.99 | > 5 | 0.743 | 1.46
26 | EB-3 (Burkitt lymphoma, suspension) | 0.975 | > 10 | 0.852 | 0.981 | 0.977 | > 5 | 0.913 | > 5.12
27 | EBC-1 (lung squamous cell carcinoma, adherent) | 0.84 | 8.17 | 0.692 | 0.233 | 0.823 | 3.47 | 0.867 | > 5.12
28 | ECC10 (stomach, suspension) | 0.913 | > 10 | 0.6 | 0.119 | 0.877 | > 5 | 0.949 | > 5.12
29 | EFM-19 (breast, adherent) | 0.93 | > 10 | 0.967 | > 1 | 0.926 | > 5 | 0.803 | 4.29
30 | EFO-21 (ovary, adherent) | 0.933 | > 10 | 0.947 | > 1 | 0.872 | > 5 | 0.821 | 4.86
31 | EFO-27 (ovary, adherent) | 0.96 | > 10 | 0.978 | > 1 | 0.916 | > 5 | 0.85 | > 5.12
32 | EGI-1 (biliary tract, adherent) | 0.883 | > 10 | 0.951 | > 1 | 0.917 | > 5 | 0.98 | > 5.12

Source: the supplement of paper PMC4967469
